From paper PMC6919601, “Identification of Plasmodium dipeptidyl aminopeptidase allosteric inhibitors by high throughput screening” (PLoS ONE, 2019)
Hit rate of the full screen: of about 110,000 compounds, about 230 (0.21%) showed an effect of 50% or more. Some of the results follow.

Each molecule was assayed against DPAP1 (Plasmodium falciparum, UniProt Q8IIJ9) (assay: primary screen, percent inhibition; read by cleavage of a fluorogenic dipeptide substrate; higher = more effect of the substance).
Design: species or system P. falciparum D10 trophozoite lysates; single well
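Also: 30 min substrate incubation versus DMSO and 10 µM JCP410 controls.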

DPAP1, sequence (Q8IIJ9 whole entry, looked up): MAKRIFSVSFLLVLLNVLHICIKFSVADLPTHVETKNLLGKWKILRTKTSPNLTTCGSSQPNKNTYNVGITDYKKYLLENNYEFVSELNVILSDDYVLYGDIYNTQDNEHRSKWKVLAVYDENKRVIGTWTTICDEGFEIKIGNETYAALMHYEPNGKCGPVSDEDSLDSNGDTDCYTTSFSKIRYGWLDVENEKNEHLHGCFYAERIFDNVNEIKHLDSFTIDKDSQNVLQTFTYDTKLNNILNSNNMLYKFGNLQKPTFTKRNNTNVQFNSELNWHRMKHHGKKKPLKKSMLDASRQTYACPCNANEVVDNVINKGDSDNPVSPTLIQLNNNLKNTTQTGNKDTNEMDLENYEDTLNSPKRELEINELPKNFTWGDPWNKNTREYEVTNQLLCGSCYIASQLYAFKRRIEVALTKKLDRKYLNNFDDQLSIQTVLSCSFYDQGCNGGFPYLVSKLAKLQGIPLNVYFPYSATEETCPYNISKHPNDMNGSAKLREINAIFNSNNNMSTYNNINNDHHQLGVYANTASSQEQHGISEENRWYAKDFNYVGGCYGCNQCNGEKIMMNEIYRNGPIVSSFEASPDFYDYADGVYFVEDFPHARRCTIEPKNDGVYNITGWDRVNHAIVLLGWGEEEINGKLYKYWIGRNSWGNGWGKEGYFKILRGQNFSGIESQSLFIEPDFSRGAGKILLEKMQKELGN

SMILES | % Inhibition @ 10 uM
CC(CCc1ccco1)NC(=O)Cn1ncc2c1-c1ccccc1OC2 (stereo not drawn) | 2.6%
NC(=O)CSc1nc2ccccc2c(=O)n1-c1cccc2ccccc12 | -4.06%
O=P(O)(O)COc1ccccc1P(=O)(c1ccccc1)c1ccccc1 | 1.52%
Cc1cc(C)n(C(=O)CN(C)S(=O)(=O)c2ccc([N+](=O)[O-])cc2)n1 | -0.0217%
O=C(CCc1ccc(S(=O)(=O)NCc2ccccc2)cc1)NC1CCCCCC1 | 1.94%
O=C(Nc1ccc(Cl)c(Cl)c1)Nc1ccccc1Cl | -1.62%
Clc1ccccc1N1CCN(Cc2cccc(Cl)c2Cl)CC1 | -4.5%
CN(C)C(=O)/C(=C\c1ccccc1)NC(=O)c1ccccc1 | -1.06%
O=C1OC(c2ccc(Cl)c(Cl)c2)=N/C1=C\c1coc2ccccc2c1=O | -7.56%
Cc1cccc(NC(=O)CN(c2cc(C)ccc2C)S(C)(=O)=O)c1 | -6.77%
CN(C)CCCNc1c2c(c(C#N)c3nc4ccccc4n13)CCC2 | -4.33%
O=C1NC(=O)/C(=C\c2cc(Br)ccc2O)N1 | 4.74%
O=C(c1ccc(CNc2c(N3CCCC3)c(=O)c2=O)cc1)N1CCN(c2ccccn2)CC1 | -0.447%
CCN(CC)C(=O)CSc1c2c(nc3ccc(Cl)cc13)CCCC2 | -6.89%
NC(=O)c1c(NC(=O)COc2ccc(Cl)cc2Cl)sc2c1CCCC2 | -0.303%
CC1CCN(c2nc3c(c(=O)n(Cc4ccccc4)c(=O)n3C)n2Cc2ccccc2)CC1 | 0.279%
COc1ccc(S(=O)(=O)NC(C)(C)C)cc1-c1nnc2c3ccccc3c(C)nn12 | 0.628%
O=C(O)c1ccc(NC(=O)C2CCCCC2)cc1 | -4.02%
Cc1ccc(CNC(=O)CCc2nnc3n(CCCOC(C)C)c(=O)c4ccccc4n23)cc1 | -5.05%
Cc1ccc(NCC(O)Cn2c3ccccc3c3ccccc32)cc1 (stereo not drawn) | 3.96%
Cc1ccc2c(N)c(C(=O)c3ccc(Br)cc3)sc2n1 | -5.61%
CCC(C)NC(=O)C1CCN(S(=O)(=O)N2CCC3(CC2)OCCO3)CC1 (stereo not drawn) | 0.514%
Cc1ccc(C(=O)N/C(=C\c2ccc(-c3ccc(Cl)cc3)o2)C(=O)NCCO)cc1 | -0.0267%
COc1ccccc1N1CCN(C(=O)CN(C)S(=O)(=O)c2ccc(F)cc2)CC1 | -11.7%

SMILES | % Inhibition @ 10 uM
Cc1ccc(N2CC(C(=O)Nc3ccc(F)c(F)c3)CC2=O)cc1 (stereo not drawn) | 0.214%
N#CCNC(=O)[C@H](CC1CCCCC1)NC(=O)c1ccc(-c2ccccn2)s1 | -1.83%
CC1(C)CC(=O)C2=C(C1)c1c(ccc3ccccc13)NC2c1ccc([N+](=O)[O-])cc1 (stereo not drawn) | 2.55%
O=C(c1cccn1-c1nnc(N2CCCCC2)s1)N1CCC(Cc2ccccc2)CC1 | -2.5%
Cc1ccc(Sc2c(C(=O)NCc3ccccn3)[nH]c3ccccc23)cc1 | -3.93%
Cc1nn2c3ccccc3n(C)c2c1C(=O)C(Cl)(Cl)Cl | 0.997%
COc1ccc(-c2onc(C)c2C)cc1S(=O)(=O)N1CCCC(C)C1 (stereo not drawn) | 7.39%
Cc1nn(C)c(N)c1-c1ccccc1 | 4.19%
Clc1cccc(OCCN2CCCCC2)c1Cl | 5.31%
O=C(Cc1cccs1)Nc1ccccc1C(=O)O | 6.12%
Cc1ccc2nc(-c3cccc(NC(=O)c4ccccc4F)c3)oc2c1 | -4.01%
COc1ccccc1C1C(C(=O)c2ccccc2)=C(O)C(=O)N1c1nc(C)c(C)s1 (stereo not drawn) | -5.51%
COc1ccc(CCCC(=O)Nc2cccc3ccccc23)cc1 | -3.67%
Cc1ccc(CNC(=O)[C@H]2O[C@@H]3OC(C)(C)O[C@@H]3[C@H]3OC(C)(C)O[C@H]32)cc1 | -3.52%
C=CCc1ccccc1OCC(O)CN1CCN(C)CC1 (stereo not drawn) | -1.07%
CN(C)c1cccc2c(S(=O)(=O)NCC(=O)N[C@@H](Cc3ccc(F)cc3)C(=O)N[C@H](/C=C/S(=O)(=O)c3ccc(F)cc3)CCS(C)(=O)=O)cccc12 | -4.72%
CC(C)C[C@H](NC(=O)c1ccc(-c2ccc(F)c(F)c2)cc1)C(=O)NCC#N | -6.46%
O=C(C1CCCO1)N1CCN(c2cccc(Cl)c2)CC1 (stereo not drawn) | 2.16%
COc1nc(F)c(F)c(Oc2ccc(C)cc2)c1F | -5.28%
N#CC1=C(N)Oc2cc(N)ccc2C1c1cc(Br)ccc1F (stereo not drawn) | 5.89%
CCOC(=O)N1CCN(CC(O)COc2ccccc2C(C)(C)C)CC1 (stereo not drawn) | -5.35%
CCOc1ccc(CNc2ccccc2C)cc1OC | -0.62%
COc1ccc(F)cc1S(=O)(=O)N1CCc2ccccc2C1 | -5%
CCOc1ccc2nc(NS(=O)(=O)c3ccc(NC(C)=O)cc3)sc2c1 | 0.583%
